Assay results published in paper PMC10516938, “Conformational dynamics of cohesin/Scc2 loading complex are regulated by Smc3 acetylation and ATP binding” (Nature Communications, 2023).
No constants are given. Whether binding was seen depends on the method and setting. Binding seen in cells or lysates may run through a third protein. Some entries that bind do so weakly or less than the wild type.

Tests used:
Smc3-PK (S. cerevisiae) = molecular target: T1, Smc3-PK (S. cerevisiae) (UniProt P47037); experiment: co-IP; Smc3-PK or Smc3^QQ-PK immunoprecipitated with anti-PK from whole-cell extracts of BMOE-treated late G1 arrested cells; Smc1 (anti-MYC) and Scc2 (anti-FLAG) detected
T1 sequence: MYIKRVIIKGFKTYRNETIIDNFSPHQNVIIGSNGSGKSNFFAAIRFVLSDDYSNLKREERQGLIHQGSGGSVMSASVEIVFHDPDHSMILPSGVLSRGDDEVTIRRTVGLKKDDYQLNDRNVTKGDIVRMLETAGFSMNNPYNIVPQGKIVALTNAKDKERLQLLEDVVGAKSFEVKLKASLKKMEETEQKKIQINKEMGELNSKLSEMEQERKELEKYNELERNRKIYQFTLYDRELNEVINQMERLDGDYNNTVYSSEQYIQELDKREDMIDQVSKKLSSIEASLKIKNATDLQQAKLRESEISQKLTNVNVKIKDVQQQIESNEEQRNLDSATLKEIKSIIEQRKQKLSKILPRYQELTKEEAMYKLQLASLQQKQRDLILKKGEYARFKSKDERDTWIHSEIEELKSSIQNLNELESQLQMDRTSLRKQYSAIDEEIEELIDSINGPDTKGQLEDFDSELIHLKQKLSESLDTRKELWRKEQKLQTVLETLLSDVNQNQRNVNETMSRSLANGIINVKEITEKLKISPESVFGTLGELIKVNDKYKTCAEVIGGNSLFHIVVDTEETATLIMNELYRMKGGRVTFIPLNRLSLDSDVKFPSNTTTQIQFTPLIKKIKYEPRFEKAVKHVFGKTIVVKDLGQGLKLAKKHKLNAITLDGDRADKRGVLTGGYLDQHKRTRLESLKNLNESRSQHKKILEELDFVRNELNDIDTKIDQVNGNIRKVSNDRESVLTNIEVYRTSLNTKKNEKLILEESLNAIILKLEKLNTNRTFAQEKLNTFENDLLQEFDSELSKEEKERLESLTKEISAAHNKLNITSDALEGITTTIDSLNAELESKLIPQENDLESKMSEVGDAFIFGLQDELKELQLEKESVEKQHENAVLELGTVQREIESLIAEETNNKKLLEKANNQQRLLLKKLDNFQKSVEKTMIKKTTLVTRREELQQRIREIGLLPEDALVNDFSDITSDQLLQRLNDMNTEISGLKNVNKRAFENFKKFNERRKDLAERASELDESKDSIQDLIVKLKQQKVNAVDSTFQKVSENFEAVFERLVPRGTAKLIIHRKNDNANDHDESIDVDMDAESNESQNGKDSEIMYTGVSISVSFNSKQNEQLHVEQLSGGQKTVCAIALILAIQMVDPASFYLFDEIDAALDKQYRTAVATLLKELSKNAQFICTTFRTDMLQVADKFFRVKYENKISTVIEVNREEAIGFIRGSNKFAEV

[1] = molecular target: T2, Smc1 E1102C (S. cerevisiae) (UniProt P32908); experiment: cross-linking; in vivo BMOE cross-link in late G1 arrested cells with ectopic Smc3-PK or Smc3^QQ-PK; anti-PK immunoprecipitation, blots with anti-MYC (Smc1) and anti-FLAG (Scc2)
T2 sequence: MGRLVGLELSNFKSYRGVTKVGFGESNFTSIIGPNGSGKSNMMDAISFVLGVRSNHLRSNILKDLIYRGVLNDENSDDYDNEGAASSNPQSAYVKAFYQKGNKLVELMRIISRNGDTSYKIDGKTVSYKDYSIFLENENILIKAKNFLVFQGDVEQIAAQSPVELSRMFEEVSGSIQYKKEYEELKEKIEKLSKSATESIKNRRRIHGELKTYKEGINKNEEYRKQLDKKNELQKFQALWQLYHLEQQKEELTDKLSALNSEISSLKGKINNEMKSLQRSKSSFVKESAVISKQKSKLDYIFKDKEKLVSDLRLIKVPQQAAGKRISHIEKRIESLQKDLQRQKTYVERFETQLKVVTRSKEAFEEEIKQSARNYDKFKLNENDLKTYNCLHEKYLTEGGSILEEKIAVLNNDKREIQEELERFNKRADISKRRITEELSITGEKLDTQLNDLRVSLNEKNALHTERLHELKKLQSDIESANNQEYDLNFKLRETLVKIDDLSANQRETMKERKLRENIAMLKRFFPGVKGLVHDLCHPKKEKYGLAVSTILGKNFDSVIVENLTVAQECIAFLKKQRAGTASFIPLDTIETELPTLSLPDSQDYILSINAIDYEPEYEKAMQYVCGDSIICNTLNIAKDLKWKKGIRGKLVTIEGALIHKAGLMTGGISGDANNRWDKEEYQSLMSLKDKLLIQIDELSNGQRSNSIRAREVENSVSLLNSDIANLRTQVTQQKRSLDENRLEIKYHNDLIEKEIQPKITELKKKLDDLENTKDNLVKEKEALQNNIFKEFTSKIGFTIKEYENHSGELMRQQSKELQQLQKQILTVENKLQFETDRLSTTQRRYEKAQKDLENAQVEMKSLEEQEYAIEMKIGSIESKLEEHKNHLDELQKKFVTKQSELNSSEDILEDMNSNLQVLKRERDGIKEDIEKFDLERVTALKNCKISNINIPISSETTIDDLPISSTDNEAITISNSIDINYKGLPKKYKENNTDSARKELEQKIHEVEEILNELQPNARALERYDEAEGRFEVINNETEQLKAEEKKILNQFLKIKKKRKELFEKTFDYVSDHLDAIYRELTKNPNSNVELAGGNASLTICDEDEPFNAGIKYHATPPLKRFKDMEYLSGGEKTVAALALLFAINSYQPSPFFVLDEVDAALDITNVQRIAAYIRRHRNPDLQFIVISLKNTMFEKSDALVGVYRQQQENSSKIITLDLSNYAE

binding (Smc3-PK (S. cerevisiae)): binds | binding [1]: binds
B1: Scc2 T1281C (protein, UniProt Q04002 1-1493)
chain: MSYPGKDKNIPGRIIEALEDLPLSYLVPKDGLAALVNAPMRVSLPFDKTIFTSADDGRDVNINVLGTANSTTSSIKNEAEKERLVFKRPSNFTSSANSVDYVPTNFLEGLSPLAQSVLSTHKGLNDSINIEKKSEIVSRPEAKHKLESVTSNAGNLSFNDNSSNKKTKTSTGVTMTQANLAEQYLNDLKNILDIVGFDQNSAEIGNIEYWLQLPNKKFVLTTNCLTKLQMTIKNITDNPQLSNSIEITWLLRLLDVMVCNIKFSKSSLKMGLDDSMLRYIALLSTIVLFNIFLLGKNDSNLHRESYIMEPVNFLSDLIESLKILTIEYGSLKIEFDTFQEALELLPKYIRNGPFLDDNVTAKLVYIFSDLLMNNDIEATTNIQFQSFWDNVKRISSDILVSLFGSFDQQRGFIIEELLSHIEKLPTKRIQKKLRKVGNQNIYITDFTFTLMSMLENINCYSFCNQMKDIAPENIDLLKNEYKKQEEFLFNIVEHINDTILERFFKNPSALRYVIDNFVQDLLLLISSPQWPVTEKILSSLLKRLLSVYSPSMQVSANIETICLQLIGNIGSTIFDIKCSTRDHEDNNLIKMINYPETLPHFFKSFEECIAYNETIKCRRSATRFLWNLRLGTILILEEYTKDAKEQIITVDNELKKILEQIKDGGLGPELENREADFSTIKLDYFSILHAFELLNLYDPYLKLILSLLAKDKIKLRSTAIKCLSMLASKDKVILSNPMVKETIHRRLNDSSASVKDAILDLVSINSSYFEFYQQINNNYNDDSIMVRKHVLRINEKMYDETNDIVTKVYVIARILMKIEDEEDNIIDMARLILLNRWILKVHEVLDQPEKLKEISSSVLLVMSRVAIMNEKCSQLFDLFLNFYLLNKEAHSKEAYDKITHVLTILTDFLVQKIVELNSDDTNEKNSIVDKQNFLNLLAKFADSTVSFLTKDHITALYPYMVSDEKSDFHYYILQVFRCTFEKLANFKQKFLYDLETTLLSRLPKMNVREIDEAMPLIWSVATHRHDTARVAKACSSCLSHLHPYINKANNEEAAIVVDGKLQRLIYLSTGFARFCFPKPSNDKIAFLQEGETLYEHITKCLLVLSKDKITHVIRRVAVKNLTKLCGNHPKLFNSRHVLHLLDKEFQSDQLDIKLVILESLYDLFLLEERKSVRNTGVNSTLSSNSILKKKLLKTNRVEFANDGVCSALATRFLDNILQLCLLRDLKNSLVAIRLLKLILKFGYTNPSHSIPTVIALFASTSQYIRHVAYELLEDLFEKYECLVFSSLSRGVTKAIHYSIHTDEKYYYKHDHFLSLLEKLCGTGKKNGPKFFKVLKRIMQSYLDDITDLTSTNSSVQKSIFVLCTNISNITFVSQYDLVSLLKTIDLTTDRLKEVIMDEIGDNVSSLSVSEEKLSGIILIQLSLQDLGTYLLHLYGLRDDVLLLDIVEESELKNKQLPAKKPDISKFSAQLENIEQYSSNGKLLTYFRKHVKDT
